The campaign covered roughly 310,000 compounds. About 2,200 (0.71%) showed an effect of 50% or more. Effects have a minus sign here. Some of the results follow.
molecular target: human ether-à-go-go-related gene (hERG) potassium channel (human, UniProt Q12809); assay: primary screen, population patch clamp on CHO cells stably expressing hERG
Sequence (Q12809 whole entry, looked up): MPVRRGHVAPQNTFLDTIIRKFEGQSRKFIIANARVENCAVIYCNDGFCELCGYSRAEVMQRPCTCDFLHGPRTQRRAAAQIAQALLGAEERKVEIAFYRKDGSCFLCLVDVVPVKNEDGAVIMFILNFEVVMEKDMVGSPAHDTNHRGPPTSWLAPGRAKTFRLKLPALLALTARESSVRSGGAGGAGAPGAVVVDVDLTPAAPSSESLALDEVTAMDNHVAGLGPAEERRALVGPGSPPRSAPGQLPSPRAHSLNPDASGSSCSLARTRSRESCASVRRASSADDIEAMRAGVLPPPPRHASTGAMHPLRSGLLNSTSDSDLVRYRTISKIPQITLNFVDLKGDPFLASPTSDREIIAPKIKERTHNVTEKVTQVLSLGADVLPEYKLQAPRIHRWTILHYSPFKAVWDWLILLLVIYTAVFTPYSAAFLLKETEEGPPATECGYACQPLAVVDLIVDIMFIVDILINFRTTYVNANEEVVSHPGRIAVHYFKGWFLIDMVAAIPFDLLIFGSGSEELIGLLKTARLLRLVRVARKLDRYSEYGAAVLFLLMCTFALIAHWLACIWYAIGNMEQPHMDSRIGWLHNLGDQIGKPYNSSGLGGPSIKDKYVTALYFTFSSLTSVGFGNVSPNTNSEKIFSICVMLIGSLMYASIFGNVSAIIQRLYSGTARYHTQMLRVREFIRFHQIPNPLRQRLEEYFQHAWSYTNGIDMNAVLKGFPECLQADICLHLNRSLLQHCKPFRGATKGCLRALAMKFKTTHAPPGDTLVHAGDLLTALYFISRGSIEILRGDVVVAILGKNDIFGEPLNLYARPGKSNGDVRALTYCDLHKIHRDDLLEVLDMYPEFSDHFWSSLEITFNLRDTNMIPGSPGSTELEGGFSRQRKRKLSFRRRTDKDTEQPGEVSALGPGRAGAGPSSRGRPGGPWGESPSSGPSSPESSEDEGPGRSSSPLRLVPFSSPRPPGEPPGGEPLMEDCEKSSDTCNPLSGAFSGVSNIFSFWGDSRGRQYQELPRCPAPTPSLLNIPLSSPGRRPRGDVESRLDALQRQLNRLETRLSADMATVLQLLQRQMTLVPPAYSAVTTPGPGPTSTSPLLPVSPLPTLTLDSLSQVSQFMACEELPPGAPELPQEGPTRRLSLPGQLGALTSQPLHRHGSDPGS

SMILES	hERG current change (%, negative = inhibition) at 1uM
CN1CCN(C(=O)C2CC(c3c(F)cccc3Cl)=NO2)CC1 (centres unmarked)	7.33%
COc1ccc(N2CCN(CC(=O)NC(C)c3ccccc3)CC2)cc1 (centres unmarked)	21.1%
Cc1cc(C)c(C)c(OCCNCc2ccccc2)c1.O=C(O)C(=O)O	9.09%
CC(=O)N1CCC2(CC1)C(C#N)=C(N)OC1=C2C(=O)CC(C)(C)C1	13.8%
Cc1occc1C(=O)Nc1ccc2ccccc2c1	15.4%
Cc1onc(-c2ccccc2)c1C(=O)c1c[nH]c(C(=O)NCCCN2CCOCC2)c1	9.35%
COc1ccc(N2CCN(C(c3ccc4ncccc4c3)c3nnnn3C(C)C)CC2)cc1 (centres unmarked)	-11.9%
COc1ccc(C(=O)Nc2nnc(C(F)(F)F)s2)cc1	58.1%
Cn1c(=O)c2c(nc(CN3CCN(Cc4ccccc4)CC3)n2Cc2ccc(Cl)cc2)n(C)c1=O	-31.1%
COc1ccc(-c2noc(-c3ccccc3-c3ccccc3)n2)cc1	2.9%
Nc1nc(SCC(=O)Nc2ccc(F)cc2)[nH]c(=O)c1NC(=O)c1ccc(F)c(F)c1	10.7%
COc1ccc(-n2cnc3scc(-c4ccc(OC)c(OC)c4)c3c2=O)cc1	9.03%
O=c1cc(-c2cccc(Br)c2)nc(-c2ccccc2F)o1	15.6%
O=C(OCc1cccs1)c1ccccc1NS(=O)(=O)c1ccc2c(c1)OCCO2	14.3%
O=C(Nn1c(O)c(C=C2N=c3ccccc3=N2)sc1=S)c1ccccc1Cl	0.388%
O=S(=O)(NCc1ccccc1)c1ccccc1Br	3.62%
NS(=O)(=O)c1ccc(NC(=O)CSc2ncccn2)cc1	6.98%
Nc1c(N2CCN(c3ccccc3)CC2)c2ccccc2oc1=O	1.19%
COc1cccc(CN2C(=O)CN(C3CCCCC3)C(=O)C2c2ccc(F)cc2)c1 (centres unmarked)	-8.37%

SMILES	hERG current change (%, negative = inhibition) at 1uM
O=C(N[C@H](C(=O)O)c1ccccc1)C1CCC(Cn2nnc3ccccc3c2=O)CC1 (some centres unmarked)	-8.07%
Cc1ccc(/C=C/C(=O)NC(C)c2ccccc2)cc1 (centres unmarked)	7.75%
CC(=O)Nc1ccc(NC(=O)COC(=O)c2c(C)nn(-c3ccccc3)c2C)cc1	11.9%
COc1ccc(CCNCc2ccccn2)cc1OC	2.18%
COc1ccccc1CNC(=O)CSc1nc2nc(C)cc(C)n2n1	0.145%
COc1cc(C(=O)NC2CCCc3ccccc32)ccc1OCC(=O)Nc1ccc(F)cc1 (centres unmarked)	13.1%
CCN(CC(=O)Nc1ccc2c(c1)OCCO2)C(=O)c1cc(=O)[nH]c2ccccc12	14%
N#C/C(=C\c1c(Oc2ccc(Cl)cc2)nc2ccccn2c1=O)C(=O)NC1CCS(=O)(=O)C1 (centres unmarked)	13.4%
O=C(CCc1nnc2ccc(NCc3ccccc3Cl)nn12)N1CCC2(CC1)OCCO2	-3.06%
CC(C)CC1COC(=O)N1 (centres unmarked)	15.6%
Cc1nc(CCN2C(=O)c3ccccc3C2=O)cs1	2.07%
O=C1CC(Nc2ccccc2)C(=O)N1c1ccc(N2CCOCC2)cc1 (centres unmarked)	9.29%
CCN(CC)c1ccc(C2C3CCCCC3(O)CCN2CC(=O)Nc2ccccc2)cc1 (centres unmarked)	3.26%
CC(C)Cc1nc(S(=O)(=O)c2ccc(Cl)cc2)c(N2CCOCC2)o1	5.42%
CCc1nnc(NC(=O)c2sc3nc4c(cc3c2N)CCCCC4)s1	14.8%
CSc1ncccc1C(=O)OCC(=O)c1ccccc1	21.2%
CCc1cc(C(=O)N2CCN(S(=O)(=O)c3ccc(Cl)cc3)CC2)sc1C	8.41%
COc1ccc(C(=O)COC(=O)CCn2nnc(-c3cccs3)n2)cc1	7.07%
O=C1CC(Nc2ccc(N3CCOCC3)cc2)C(=O)N1c1ccccc1F (centres unmarked)	3.19%

SMILES	hERG current change (%, negative = inhibition) at 1uM
COCCCn1c(-c2cccc(Cl)c2)nc2c1c(=O)[nH]c(=O)n2Cc1ccccc1	9.37%
O=C(/C=C/c1ccccc1Cl)NCCc1ccccc1	-12.9%
COc1ccccc1NC(=O)C1CCCN(c2nc(C)cc(C)n2)C1 (centres unmarked)	1.4%
CCn1c(=O)c(C(C)=O)c(O)c2ccccc21	2.38%
Cc1cc(C)c(OCC(=O)OCC(=O)N2c3ccccc3CC2C)c(C)c1 (centres unmarked)	19.8%
CC(OC(=O)C1CCN(S(=O)(=O)c2ccc(Cl)cc2)CC1)C(=O)N1CCc2ccccc21 (centres unmarked)	2.26%
Cc1ccc(-c2n[nH]c(=O)c3ccccc23)cc1S(N)(=O)=O	13.9%
Cc1cc(N2CC(C)OC(C)C2)nc2ccccc12 (centres unmarked)	2.03%
Fc1ccc(-c2cnn3c(-c4ccncc4)ccnc23)cc1	11.8%
O=C(N/N=C/c1coc2ccccc2c1=O)c1ccc(Cl)cc1	17.5%
O=c1oc2c(-c3ccc([N+](=O)[O-])cc3)cc(O)cc2s1	10.7%
CCOc1ccc(S(=O)(=O)NCCC(=O)NCCOc2ccccc2OC)cc1	3.66%
CC(Sc1nnnn1-c1ccc(O)cc1)C(=O)NNC(=O)c1ccc(F)cc1 (centres unmarked)	8.48%
CC(C)c1nnc(NC(=O)c2ccc3ccccc3c2)s1	6.94%
O=C(NN1C(=O)c2ccccc2NC1c1ccc([N+](=O)[O-])o1)c1ccc(Br)cc1 (centres unmarked)	-27.2%
COc1ccc(N2C(=O)CSC2c2ccc([N+](=O)[O-])cc2)cc1 (centres unmarked)	-12.2%
Cc1cccn2c(CNCCCn3ncc4ccccc43)c(C(=O)N3CCCCC3)nc12	11.9%
CC1=NN(c2ccc(C)cc2)C(=O)/C1=C\c1ccc(Br)s1	11.5%

Reference: PMC4336329 (PLoS ONE, 2015)
